Source: ChEMBL document CHEMBL1156829
Whole data set: some 5,400 compounds, median “IFI” near 2, cut for the highest 2% near 22. The list shows a part of the results.

Assay: NOVARTIS: Inhibition Frequency Index (IFI) - the number of HTS assays where a compound showed > 50% inhibition/induction, expressed as a percentage of the number of assays in which the compound was tested.
Type: functional

| SMILES | IFI |
| --- | --- |
| COC(=O)[C@@H]1C[C@@H](NC(=O)c2ccc(OC)cc2OC)CN1Cc1ccc(C(F)(F)F)cc1 | 3.48% |
| CCN1CCN(c2cc(C)c3cc(NC(=O)c4ccc(F)c([N+](=O)[O-])c4)ccc3n2)CC1 | 6.67% |
| COc1ccc(CCn2c(SCC(=O)N3CCN(c4ccccc4OC)CC3)nc3ccccc3c2=O)cc1OC | 1.19% |
| CN1CCN(c2cc(-c3cccnc3)nc(-c3ccncc3)n2)CC1 | 0% |
| Cc1ccc(O)c(NC(=O)c2cnn3c(C(F)(F)F)cc(-c4ccc(F)cc4)nc23)c1 | 2.27% |
| CCCCCN(CC(=O)Nc1cc(C(C)(C)C)nn1-c1ccc(Cl)c(Cl)c1)C(=O)c1ccc2c(c1)OCO2 | 1.89% |
| CCCCN(C)Cc1ccc2c(NC(=O)c3ccc(C)s3)c(C(=O)OC)sc2n1 | 1.72% |
| COc1ccc(C=NNc2nc(O)cc(-c3ccccc3)n2)cc1OC | 0% |
| CCC(Cc1cnc2nc(N)nc(N)c2n1)c1ccc(C(=O)N[C@@H](CCC(=O)O)C(=O)O)cc1 (stereo partly specified) | 17.9% |
| CCCCNC(=O)N(CCCC(C)Nc1cc(OC)cc2cccnc12)Cc1ccc(OC)c(OC)c1 (stereo unspecified) | 2.86% |
| CCN(CC)C(=O)COc1ccc(-c2nnc(N3CCCCC3)c3ccccc23)cc1 | 3.08% |
| Cc1c(Cl)cccc1NCC(=O)NN=C1CCCC1 | 0% |
| COc1cc2c(cc1OC)C1=NC(=O)C(C(C)C)N1C(SCc1csc(Cl)n1)=N2 (stereo unspecified) | 3.66% |
| CN(Cc1cc2ccc(F)cc2n(CCN2CCCCC2)c1=O)CC1COCCO1 (stereo unspecified) | 1.96% |
| CC(=O)N(C1=C(N2CCCCC2)C(=O)c2ccccc2C1=O)c1ccc(F)cc1 | 8% |
| O=C(c1ccco1)N1CCN(c2ccc([N+](=O)[O-])c(NC3CC3)c2)CC1 | 1.21% |
| CCOc1ccc(C(=O)Cn2ccc(=NCc3ccccc3)cc2)cc1[N+](=O)[O-] | 0% |
| C=CCOc1c(Br)cc(C=c2sc3n(c2=O)C(c2ccc(OC)c(OC)c2)C(C(=O)OCC)=C(C)N=3)cc1OC (stereo unspecified) | 1.46% |
| CCN(CC)CCCC(C)NC(=O)CSc1nc2ccccc2c(=O)n1-c1cccc(Cl)c1 (stereo unspecified) | 3.67% |
| CC(=O)N(C1=C(N2CCOCC2)C(=O)c2ccccc2C1=O)c1ccc(Br)cc1 | 0% |
| CCCCc1nc(CN2CCC3(CC2)C(=O)N(CCc2ccccc2)C(=O)N3C)c[nH]1 | 10% |
| COc1cc(C(=O)ON=C(N)Cc2cccc3ccccc23)cc(OC)c1OC | 0% |
| COC(=O)c1cnn(-c2ccccc2)c1C=NOC(=O)c1ccccc1 | 1.07% |
| O=C(O)c1ccc2c(c1)N=CN(C1CCCCC1)C2 | 1.25% |
| CCNC(=O)/C=C/c1ccc(C(C)(C)C)cc1 | 0% |
| CC(C)(C)c1ccc(C(=O)NCCCCNc2ccnc3cc(Cl)ccc23)cc1 | 3.19% |

| SMILES | IFI |
| --- | --- |
| Oc1ccc(-c2ccc3c(c2)OCO3)cc1CNCC1(N2CCCCC2)CCCCC1 | 0.855% |
| Cc1ccc(OCC(=O)Nc2cccc(-c3nc4ncccc4o3)c2)cc1C | 0% |
| COCCOC(=O)C1=C(C)NC2=C(C(=O)CC(c3ccc(OC)c(OC)c3)C2)C1c1ccc(F)cc1 (stereo unspecified) | 7.32% |
| CN(C)CCCNc1c2ccccc2nc2ccccc12 | 0% |
| CCN1C(=O)c2ccccc2Sc2ccc(NC(=O)NCCCOC(C)C)cc21 | 2.38% |
| CN(C)CCn1cnc2sc3c(c2c1=O)CCC(NCc1cccc(Cl)c1)C3 (stereo unspecified) | 1.96% |
| Cc1nc2ncccn2c1-c1csc(Nc2ccccn2)n1 | 0% |
| Nc1c(C(=O)Nc2ccc(F)cc2)sc2nc3c(c(-c4cccs4)c12)CCCC3 | 3.53% |
| Cc1ccc2cc3c(N)c4cccc(C)c4nc3nc2c1 | 12.8% |
| CCOC(=O)N1CCC(n2c(SCC(=O)N3CCCCCC3)nc3ccccc3c2=O)CC1 | 0% |
| CN1CCN=C1c1ccc(NC(=O)c2ccc(C(=O)Nc3ccc(C4=NCCN4C)cc3)c([N+](=O)[O-])c2)cc1 | 10.8% |
| COc1ccc(-c2cnnc(NN=Cc3ccc([N+](=O)[O-])o3)n2)cc1 | 0% |
| COc1cc(NC(C)CCCN(Cc2ccc(OC)c(OC)c2)C(=O)NC2CCCCC2)c2ncccc2c1 (stereo unspecified) | 3.19% |
| Cn1c(SCc2cccc([N+](=O)[O-])c2)nc2c(c1=O)SCC2 | 0% |
| CN1CCc2c(sc3c2C(=O)NC(c2ccc(O)cc2)N3)C1 (stereo unspecified) | 0% |
| O=C(NC(CN1CCCC1)c1ccccc1)C1CCCCN1S(=O)(=O)c1ccc(Cl)cc1 (stereo unspecified) | 0.971% |
| c1cncc(-c2cc(NCCCn3ccnc3)nc(-c3ccncc3)n2)c1 | 0% |
| CCOc1ccc(/C=C2/SC(=Nc3ccccc3)NC2=O)cc1OC | 3.45% |
| O=C(Nc1ccc(-c2nc3ccccc3[nH]2)cc1)c1ccc(Cl)c(Cl)c1 | 6.82% |
| Cc1cccn2c(NCc3ccccc3)c(-c3ccccc3OC(=O)C(C)Cl)nc12 (stereo unspecified) | 4.67% |
| CCCN1CCc2c(sc3nc(SCC(=O)OC)nc(N)c23)C1 | 8% |
| CCOc1ccc(Nc2nc(NCc3ccco3)c3ccccc3n2)cc1 | 3.85% |
| CC(CC(=O)Oc1ccccc1-c1nc2ccccn2c1NC(C)(C)CC(C)(C)C)CC(C)(C)C (stereo unspecified) | 2.83% |
| COc1ccc(SC2CCN(C3CCOCC3)CC2)cc1 | 1.39% |
| COC(=O)c1cn([C@@H]2C[C@@H](C(=O)NCc3cccc(C(F)(F)F)c3)N(C3CCN(Cc4ccccc4)CC3)C2)nn1 | 1.75% |
| CC1CN(C)C(C)CC1=NOC(=O)c1ccc(Cl)c(Cl)c1 (stereo unspecified) | 0% |

| SMILES | IFI |
| --- | --- |
| Cc1cc(C)cc(NC2=C(N)C(=O)c3ccccc3C2=O)c1 | 0% |
| Clc1ccc2c(NC3CCCCCCC3)ccnc2c1 | 1.27% |
| COc1ccc(C2CC(c3cccs3)=NN2C(=O)CSc2nnc(CNC(=O)c3cccs3)n2-c2cc(C)ccc2C)cc1 (stereo unspecified) | 2.41% |
| COC(CNC(=O)c1c[nH]c2ccc(S(=O)(=O)N3CCN(C)CC3)cc2c1=O)OC | 0% |
| COc1cc(OC)cc(C(=O)N2CCN(Cc3cccc(Br)c3)CC2)c1 | 0% |
| CC(NCCC(c1ccccc1)c1ccccc1O)c1ccccc1 (stereo unspecified) | 0% |
| COc1ccc(OC)c(C(=O)c2oc3ccccc3c2NC(=O)CCl)c1 | 0% |
| Cn1c(=O)[nH]c2c(c1=O)n(C)c(=O)n2C | 1.4% |
| CC1CCC(C(C)(C)Oc2ccc(NC(=O)c3ccccc3)cc2)CC1 (stereo unspecified) | 0.833% |
| O=C(NC(=S)Nc1ccc(-c2nc3ccccc3s2)cc1)c1ccc(S(=O)(=O)N2CCCC2)cc1 | 0% |
| Clc1cccc(CCNC2CCN(CCc3ccccc3)CC2)c1 | 2.34% |
| COc1cc2c(OC3OCC(OC)C(OC)C3O)c3c(c(-c4ccc5c(c4)OCO5)c2cc1OC)C(=O)OC3 (stereo unspecified) | 27.7% |
| CC(C)(C)c1ccc(Cn2nnc3c(O)nc(C4CCN(C(=O)c5ccccc5)CC4)nc32)cc1 | 10.8% |
| COc1ccc(NC2=C(c3ccc(OC)cc3)C(=O)c3ccccc32)cc1 | 4.76% |
| CCCCOC(=O)C1=C(C)NC2=C(C(=O)CCC2)C1c1ccc(Cl)c(Cl)c1 (stereo unspecified) | 2.3% |
| O=C(NC1CCN(Cc2ccccc2)CC1)c1cc(-c2ccc(F)cc2)cc(-n2cnnn2)c1 | 3.03% |
| COc1cccc(C(=O)NC(c2ccc(Cl)cc2)c2cc(Cl)c3cccnc3c2O)c1 (stereo unspecified) | 0% |
| CN(Cc1ccccc1)C(=O)CSc1nc(NCc2ccccc2)c2ccccc2n1 | 0% |
| CCOc1ccc(NCc2ccc(O)c3ncccc23)cc1 | 13% |
| CC1(C)CC(=O)C2=C(C1)Nc1ccccc1N(C(=O)Cc1ccccc1)C2c1ccc([N+](=O)[O-])s1 (stereo unspecified) | 1.19% |
| Nc1ncc(Br)cc1S(=O)(=O)NCCC(=O)N1CC=C(c2ccccc2)CC1 | 1.96% |
| CCOC(=O)CCS(=O)(=O)c1ccc(Br)cc1 | 1.54% |
| c1ccc(CNc2nc(-c3ccccn3)nnc2-c2ccccc2)cc1 | 15.4% |
| O=C(COC(=O)c1ccccc1O)c1ccc(Br)cc1 | 4.65% |
| O=C(C1CCN(S(=O)(=O)c2cccc3nonc23)CC1)N1CCCc2ccccc21 | 1.85% |
| CCN(CC)c1ccc(/C=C(/C#N)c2nc3ccccc3[nH]2)o1 | 7.69% |

| SMILES | IFI |
| --- | --- |
| CCN(CC)C(=O)c1cn(C2CCN(Cc3ccco3)CC2)nn1 | 1.77% |
| Clc1cccc(C(Nc2cccnc2)(c2ccccc2)c2ccccc2)c1 | 0% |
| COC(=O)CNC(c1ccccc1Cl)c1cc(Br)ccc1NS(=O)(=O)c1ccc(C)cc1 (stereo unspecified) | 0% |
| COc1cc(Br)c(C2CC(=O)Nc3ccc4ccccc4c32)cc1OC (stereo unspecified) | 0% |
| CCCCC(=O)Oc1ccccc1-c1nc2ccccn2c1NC(C)(C)CC(C)(C)C | 4.72% |
| CC(C)CCNC(=O)CN1C(=O)c2cccnc2Oc2ccccc21 | 0% |
| CCN1c2ccccc2N(C)C1(C)c1ccccc1 (stereo unspecified) | 6.56% |
| CCOC(=O)C1=C(C)NC2=C(C(=O)CC(c3ccc(OC)c(OC)c3)C2)C1c1ccc(Br)cc1 (stereo unspecified) | 4.71% |
| CCOC(=O)c1nnn(-c2nonc2N)c1-c1ccc(C)cc1 | 0% |
| CN(C)c1cc(NC(=O)Nc2cccc(Cl)c2)c2ccccc2n1 | 7.64% |
| c1ccc2c(c1)OC13CCCCC1C2NCC3 (stereo unspecified) | 0% |
| O=C(CSc1nc2cc3c(cc2c(=O)n1Cc1ccco1)OCO3)Nc1cc(C(F)(F)F)ccc1Cl | 4.35% |
| Cc1cc(/C=C2/SC(=S)N(CC(=O)O)C2=O)c(C)n1-c1ccccc1 | 0% |
| Cc1ccc(C(=O)C(C)[n+]2ccc(N(C)C)cc2)cc1 (stereo unspecified) | 0% |
| COCCCNC(=O)c1c(C)nc2scc(C)n12 | 0% |
| CCOC(=O)C1=C(N)OC2=C(C(=O)CC(c3ccccc3)C2)C1c1ccc(Cl)cc1Cl (stereo unspecified) | 1.18% |
| CCOc1ccc(NC(=O)c2ccc(C)o2)cc1 | 0% |
| Cc1ccc(Cn2c(C)c3cnn(CC(=O)O)c(=O)c3c2C)cc1 | 0% |
| Cc1ccc2nc(Nc3nc(O)c4ccccc4n3)nc(C)c2c1 | 0% |
| COc1cc2nc(C3CCC3)n(NC(=O)c3cccc(F)c3)c(=O)c2cc1OC | 8.33% |
| CCN(CC)CCCC(C)Nc1ccnc2cc3ccccc3cc12 (stereo unspecified) | 9.23% |
| Oc1ccc(-c2ccccc2)cc1CN1CCCCCC1 | 0% |
| CCC(c1nc2ccccc2c(=O)n1-c1cccc(Cl)c1)N(CCc1ccccc1)C(=O)c1ccc(F)cc1 (stereo unspecified) | 1.82% |
